Laboratory results published in publication PMC4242493.
The list shows a part of the results. The list includes weakly bound sequences.

target: MaxL homodimer (UniProt P61244); experiment: universal protein-binding microarray (PBM); conditions: PBS-based mixture, 10 nM His-tagged protein dimer, 2% milk, 200 ng/uL BSA, 50 ng/uL salmon testes DNA, 0.02% TX-100; detection with Alexa 488 anti-His …; high values mean tight binding; most listed sequences are background and not binding sites; double strand, one strand shown
Chain of UniProt P61244 (P61244 whole entry): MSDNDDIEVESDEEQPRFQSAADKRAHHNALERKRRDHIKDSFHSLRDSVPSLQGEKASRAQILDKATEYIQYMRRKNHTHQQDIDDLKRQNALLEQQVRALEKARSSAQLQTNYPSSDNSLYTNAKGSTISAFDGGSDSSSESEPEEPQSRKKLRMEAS

**Q.** For GATTAATA, which binding signal (normalized occupancy) is on record?
**A.** 0.0826

**Q.** How did the binding signal (normalized occupancy) turn out when CTGCAATA was run?
**A.** 0.0719

**Q.** GCTCGGAC was tested. Which binding signal (normalized occupancy) did it give?
**A.** 0.0706

**Q.** CCTCGCAA was tested. Which binding signal (normalized occupancy) did it give?
**A.** 0.0727

**Q.** How did the binding signal (normalized occupancy) turn out when ACCCGAGG was run?
**A.** 0.0767

**Q.** AAGAGTAC was tested. Which binding signal (normalized occupancy) did it give?
**A.** 0.0695

**Q.** ATGAAGGC was tested. Which binding signal (normalized occupancy) did it give?
**A.** 0.0738

**Q.** How did the binding signal (normalized occupancy) turn out when AACTGTCT was run?
**A.** 0.0701

**Q.** With AGTCAACT as the sequence, how does the binding signal (normalized occupancy) read?
**A.** 0.0744

**Q.** CCCGCTGA was tested. Which binding signal (normalized occupancy) did it give?
**A.** 0.0751

**Q.** How did the binding signal (normalized occupancy) turn out when AGGTCAGC was run?
**A.** 0.0718

**Q.** How did the binding signal (normalized occupancy) turn out when AAGTGGCT was run?
**A.** 0.072

**Q.** For CCCCAACC, which binding signal (normalized occupancy) is on record?
**A.** 0.0744

**Q.** How did the binding signal (normalized occupancy) turn out when CTCAAATC was run?
**A.** 0.0779

**Q.** CCAATGAA was tested. Which binding signal (normalized occupancy) did it give?
**A.** 0.0693

**Q.** With GGTGCAAC as the sequence, how does the binding signal (normalized occupancy) read?
**A.** 0.0718

**Q.** For ACTCTTTG, which binding signal (normalized occupancy) is on record?
**A.** 0.0732

**Q.** For GGCCGGAA, which binding signal (normalized occupancy) is on record?
**A.** 0.0659

**Q.** AGTTTACG was tested. Which binding signal (normalized occupancy) did it give?
**A.** 0.0705

**Q.** Which binding signal (normalized occupancy) does the source give for AGCAGTCA here?
**A.** 0.0745

**Q.** Which binding signal (normalized occupancy) does the source give for GACAGCCA here?
**A.** 0.0726

**Q.** How did the binding signal (normalized occupancy) turn out when AATCATGG was run?
**A.** 0.0832

**Q.** How did the binding signal (normalized occupancy) turn out when CTTCCTAA was run?
**A.** 0.0757

**Q.** ACGTAGTG was tested. Which binding signal (normalized occupancy) did it give?
**A.** 0.0792

**Q.** With AACTTAAC as the sequence, how does the binding signal (normalized occupancy) read?
**A.** 0.0733

**Q.** Which binding signal (normalized occupancy) does the source give for TGGTGGAA here?
**A.** 0.0731

**Q.** CAAGTGTA was tested. Which binding signal (normalized occupancy) did it give?
**A.** 0.0832

**Q.** For AATGCGTC, which binding signal (normalized occupancy) is on record?
**A.** 0.0736

**Q.** GCACTACA was tested. Which binding signal (normalized occupancy) did it give?
**A.** 0.0815

**Q.** GATGCACA was tested. Which binding signal (normalized occupancy) did it give?
**A.** 0.0921

**Q.** ACCCCCGA was tested. Which binding signal (normalized occupancy) did it give?
**A.** 0.0852

**Q.** AACCCACA was tested. Which binding signal (normalized occupancy) did it give?
**A.** 0.082

**Q.** AAAAAGTG was tested. Which binding signal (normalized occupancy) did it give?
**A.** 0.0735

**Q.** AGTGACTA was tested. Which binding signal (normalized occupancy) did it give?
**A.** 0.0719

**Q.** Which binding signal (normalized occupancy) does the source give for CCTCACCA here?
**A.** 0.0806

**Q.** Which binding signal (normalized occupancy) does the source give for TACAGAAA here?
**A.** 0.0827

**Q.** GTCGCTAA was tested. Which binding signal (normalized occupancy) did it give?
**A.** 0.0691

**Q.** With CTGGCAAC as the sequence, how does the binding signal (normalized occupancy) read?
**A.** 0.0708

**Q.** With GTTTCTGA as the sequence, how does the binding signal (normalized occupancy) read?
**A.** 0.074

**Q.** Which binding signal (normalized occupancy) does the source give for TCACTCCA here?
**A.** 0.0796

**Q.** How did the binding signal (normalized occupancy) turn out when ATTAATGA was run?
**A.** 0.0803

**Q.** How did the binding signal (normalized occupancy) turn out when TAATATTA was run?
**A.** 0.0831

**Q.** For AAGCGTGG, which binding signal (normalized occupancy) is on record?
**A.** 0.121

**Q.** With GAGGCTCC as the sequence, how does the binding signal (normalized occupancy) read?
**A.** 0.0715

**Q.** ACTCACCA was tested. Which binding signal (normalized occupancy) did it give?
**A.** 0.0753

**Q.** ATAGCGTG was tested. Which binding signal (normalized occupancy) did it give?
**A.** 0.104

**Q.** How did the binding signal (normalized occupancy) turn out when TGATTCAA was run?
**A.** 0.0777

**Q.** TCCCACGA was tested. Which binding signal (normalized occupancy) did it give?
**A.** 0.0838

**Q.** How did the binding signal (normalized occupancy) turn out when CTAGGGCA was run?
**A.** 0.0657

**Q.** For GGACGTCC, which binding signal (normalized occupancy) is on record?
**A.** 0.0681

**Q.** Which binding signal (normalized occupancy) does the source give for ACCGGTAC here?
**A.** 0.0688

**Q.** With AAATCTGT as the sequence, how does the binding signal (normalized occupancy) read?
**A.** 0.0754

**Q.** GGGGGGCA was tested. Which binding signal (normalized occupancy) did it give?
**A.** 0.0847

**Q.** Which binding signal (normalized occupancy) does the source give for CGTATTGA here?
**A.** 0.079

**Q.** Which binding signal (normalized occupancy) does the source give for GAAGTCAC here?
**A.** 0.0814

**Q.** ACTTGAAA was tested. Which binding signal (normalized occupancy) did it give?
**A.** 0.0709

**Q.** Which binding signal (normalized occupancy) does the source give for ACAAGGAC here?
**A.** 0.0809

**Q.** Which binding signal (normalized occupancy) does the source give for CCTCAGAA here?
**A.** 0.0763

**Q.** CCTAATCG was tested. Which binding signal (normalized occupancy) did it give?
**A.** 0.0698

**Q.** Which binding signal (normalized occupancy) does the source give for ACCTCTTC here?
**A.** 0.0763

**Q.** How did the binding signal (normalized occupancy) turn out when GGCATCCC was run?
**A.** 0.0791

**Q.** Which binding signal (normalized occupancy) does the source give for ATTCTGAG here?
**A.** 0.0732

**Q.** With GCTGGCTA as the sequence, how does the binding signal (normalized occupancy) read?
**A.** 0.07

**Q.** For GACGTCTC, which binding signal (normalized occupancy) is on record?
**A.** 0.0719

**Q.** For AACAAATG, which binding signal (normalized occupancy) is on record?
**A.** 0.0771

**Q.** For ATCATCAA, which binding signal (normalized occupancy) is on record?
**A.** 0.0756

**Q.** How did the binding signal (normalized occupancy) turn out when ATCGCCTA was run?
**A.** 0.0745

**Q.** With CAAACCAG as the sequence, how does the binding signal (normalized occupancy) read?
**A.** 0.072

**Q.** For CAGGCCTC, which binding signal (normalized occupancy) is on record?
**A.** 0.0728

**Q.** Which binding signal (normalized occupancy) does the source give for AGGCCAGC here?
**A.** 0.0697

**Q.** With ACAAGACT as the sequence, how does the binding signal (normalized occupancy) read?
**A.** 0.0738

**Q.** With CACTGTAC as the sequence, how does the binding signal (normalized occupancy) read?
**A.** 0.0769

**Q.** How did the binding signal (normalized occupancy) turn out when AGCAGATG was run?
**A.** 0.0826

**Q.** For CCTGGGAA, which binding signal (normalized occupancy) is on record?
**A.** 0.0702

**Q.** Which binding signal (normalized occupancy) does the source give for CTATGACC here?
**A.** 0.0793

**Q.** Which binding signal (normalized occupancy) does the source give for GCCGATCA here?
**A.** 0.0731

**Q.** How did the binding signal (normalized occupancy) turn out when AATACATC was run?
**A.** 0.0794

**Q.** AATAGTCG was tested. Which binding signal (normalized occupancy) did it give?
**A.** 0.0712

**Q.** How did the binding signal (normalized occupancy) turn out when ACCCTGGG was run?
**A.** 0.0725

**Q.** How did the binding signal (normalized occupancy) turn out when GATCATGC was run?
**A.** 0.101

**Q.** Which binding signal (normalized occupancy) does the source give for AACCAGTG here?
**A.** 0.0744

**Q.** How did the binding signal (normalized occupancy) turn out when GAGATACA was run?
**A.** 0.0779

**Q.** How did the binding signal (normalized occupancy) turn out when AAGCAGGC was run?
**A.** 0.075

**Q.** Which binding signal (normalized occupancy) does the source give for AAAACTGG here?
**A.** 0.0704

**Q.** With CCGCGCTA as the sequence, how does the binding signal (normalized occupancy) read?
**A.** 0.0732

**Q.** CAGCTTCA was tested. Which binding signal (normalized occupancy) did it give?
**A.** 0.0678
